# According to the supplement of paper PMC8728848:
# Some of the results follow.
# B1: MpL2 (Macrolepiota procera) (protein)
# chain: MSTQVSSGQTYKITNVKAGTVIDLSGEDNKSIIGYPYHSGKNQQWTFNWTGKAWTLRSASSGSYLGIEGTPADGTRLVAVNDPFEWHIWRDEANENAFRIFVPFTNYNLRLSGYGDTTPGTPVQLWWTWEGLHQTWTIDRP
# Assays:
# Assay in all cases: glycan array binding signal (z-score within array); higher = stronger binding
# Details in all cases: glycan notation: IUPAC condensed, linker removed; mutation: D109R
# [1] = biological target: Neu5Gc(a2-8)Neu5Gc(a2-3)Gal(b1-4)GlcNAc(b1-3)Gal(b1-4)GlcNAc
# In short: (§1)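 The binding signal is a Z-score computed within each array. Data were drawn from 3228 arrays in the Consortium for Functional Glycomics database, restricted to those with a known protein sequence. Scores were averaged over arrays of the same protein sequence at different concentrations or buffers, and over linkers, and negative values can be taken as non-binding.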
# [2] = biological target: Neu5Gc(a2-8)Neu5Gc(a2-6)Gal(b1-4)GlcNAc
# In short: as §1
# [3] = biological target: Neu5Gc(b2-6)Gal(b1-4)GlcNAc
# In short: as §1
binder,measurement,setting,value
B1,glycan array binding signal (z-score),[1],-0.31
same,glycan array binding signal (z-score),[2],-0.27
same,glycan array binding signal (z-score),[3],-0.266
